In ChEMBL document CHEMBL1201862, “PubChem BioAssay data set” (2004):
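Cultured in 96-well plates, cells were exposed to test compound for 48 hours across five concentrations. GI50 marks 50% less growth.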 The source made the active and inactive calls. Cut-off read from the data, not from the text of the source: active = GI50 up to about 1.1 µM and inactive = higher.

The compounds below were run on NCI-H322M (assay: NCI tumour cell line growth inhibition, 48 h).
`C=CC1(C)CC(=O)C2(O)C(C)(O1)C(OC(C)=O)C(O)C1C(C)(C)CCC(O)C12C` (stereo not drawn) was tested, and the GI50 was inactive: > 95.3 µM. For `O=C1c2ccccc2C2(c3ccc(F)cc3)NCCN12` (stereo not drawn), the GI50 was inactive: > 100 µM. With `COc1ccc(/C=C/C(=N/NC(=O)N/N=C(/C=C/c2ccc(OC)cc2)C(C)(C)CN2CCCCC2)C(C)(C)CN2CCCCC2)cc1` the GI50 was inactive: 2.33 µM. In the case of `C[C@H]1CC(=O)[C@@]2(O)C#C/C=C\C#C[C@@H]3Nc4c(cc(O)c5c4C(=O)c4ccccc4C5=O)[C@]24O[C@]314`, the GI50 is reported as active: 0.139 µM. `COc1ccc2c(c1)CC[C@@H]1[C@@H]2CC[C@]2(C)C(=O)/C(=C/c3ccc(OC)c(OC)c3)C[C@@H]12` was tested, and the GI50 was inactive: > 100 µM. With `CC1=C(C)C(=O)c2c(cc3ccccn23)C1=O` the GI50 was inactive: 20.4 µM. For `CC12CC3(O)OC(O1)C1(COC(=O)c4ccccc4)C3CC21OC1OC(CO)C(O)C(O)C1O` (stereo not drawn), the GI50 was inactive: > 100 µM. `CC(C)(C)NNC(=O)CCn1[nH]c(=O)c(Cl)c(Cl)c1=O` was tested, and the GI50 was inactive: > 100 µM. In the case of `O=c1[nH]c2cc([N+](=O)[O-])c(N(CCO)CCO)c([N+](=O)[O-])c2[nH]1`, the GI50 is reported as inactive: 37.8 µM. `C(/Cc1ccc2c(c1)OCO2)=N\N=C1NCCN1` was tested, and the GI50 was inactive: > 100 µM. `CCOC(=O)N/N=C(\CC)NO` was tested, and the GI50 was inactive: > 100 µM. `O=C1C(Sc2ccc3ccccc3c2)=C(Sc2ccc3ccccc3c2)C(=O)c2ccccc21` was tested, and the GI50 was inactive: 19 µM. In the case of `COc1ccc2c(c1)CCN1CCCc3ccc(OC)cc3C21` (stereo not drawn), the GI50 is reported as inactive: 86.1 µM. In the case of `CCCCC1NC=Nc2c1ccc1c2[nH]c2ccccc21` (stereo not drawn), the GI50 is reported as inactive: 2.22 µM. With `C[C@@H](NC(=O)[C@@H]1C[C@]1(C)CO)c1cccc2ccccc12` the GI50 was inactive: > 100 µM. `COc1ccc(/C=c2\sc3n(c2=O)C(N)=C(C#N)C(c2ccc(OC)cc2)C=3c2nc3ccccc3[nH]2)cc1` (stereo not drawn) was tested, and the GI50 was inactive: 31.9 µM. With `CC(C)=c1sc(=C(C)C)c2c1=NC(C)(C)N=2` the GI50 was inactive: > 100 µM. `COC(=O)C(=Cc1cc(OC)ccc1OC)C(=O)OC` was tested, and the GI50 was inactive: 29.2 µM. For `CCOc1cc(NC(C)=O)ccc1C(=O)NN1C(=O)/C(=C/c2ccco2)N=C1c1ccccc1`, the GI50 was inactive: > 100 µM. In the case of `O=c1oc2c([N+](=O)[O-])cc([N+](=O)[O-])cc2c2ccccc12`, the GI50 is reported as inactive: > 100 µM. In the case of `C[Si](C)(C)C1=C([Si](C)(C)C)C(Cl)(Cl)C1=O`, the GI50 is reported as inactive: 13.9 µM. For `COC(=O)NC1C(C)OC(OC2C/C=C(/C)C3C=CC4C(OC5CC(OC6CC(OC7CC(O)C(O)C(C)O7)C(OC7CC(O)C(OC)C(C)O7)C(C)O6)C(O)C(C)O5)C(C)CC(C)C4C3(C)C(=O)C3=C(O)C4(CC(C)C(CO)=CC4/C=C\2C)OC3=O)CC1(C)[N+](=O)[O-]` (stereo not drawn), the GI50 was inactive: 10.6 µM. With `CC(=O)NCCCCNCCCNC(C)=O` the GI50 was inactive: > 100 µM. In the case of `CCOC(=O)c1c(C)[nH]c2c1c(CN(C)C)c(O)c1nc(C)c(C)nc12`, the GI50 is reported as inactive: 25.1 µM. `COc1ccc(N(C(=O)Nc2ccc(Cl)c(Cl)c2)c2ccccc2)cc1` was tested, and the GI50 was inactive: > 10 µM. In the case of `O=S1(=O)NN=C(NCc2ccc(Cl)cc2)c2ccccc21`, the GI50 is reported as inactive: > 100 µM. `COC(=O)c1csc([C@@H](OC(=O)[C@H](C)[C@H](CCCC(C)(Cl)Cl)OC(=O)c2csc([C@H](O)CO)n2)C(C)C)n1` was tested, and the GI50 was inactive: 15.7 µM. `COc1c(C)c(C/C=C(\C)CCCCO)c(OC)c2ccccc12` was tested, and the GI50 was inactive: 57.4 µM. `COC(=O)C1N=CSCC1(C)O` (stereo not drawn) was tested, and the GI50 was inactive: > 100 µM. With `CC(C)n1c(=O)[nH]n(-c2ccccc2)c1=O` the GI50 was inactive: > 100 µM. `COc1ccc2c(c1)c(CC(=O)O)c(C)n2C(=O)c1ccc(Cl)cc1` was tested, and the GI50 was inactive: 30.6 µM. In the case of `C[C@H](CCC(=O)NCC(=O)O)[C@H]1CC[C@H]2[C@@H]3[C@H](O)C[C@@H]4C[C@H](O)CC[C@]4(C)[C@H]3CC[C@]12C`, the GI50 is reported as inactive: > 100 µM. With `c1ccc([P+](Cc2ccccc2C[P+](c2ccccc2)(c2ccccc2)c2ccccc2)(c2ccccc2)c2ccccc2)cc1` the GI50 was inactive: > 100 µM.
